# Reference: the supplement of paper PMC9046079
# ± gives the standard deviation of the averaged measurements. Some of the results follow.
# What was measured:
# [1] = system: murine small intestinal organoids (ENR+CD Paneth differentiation); test: cellular ATP (CellTiter-Glo 3D) relative to plate median (log10 fold change); higher = more viable cells; details: 6 d
# [2] = system: murine small intestinal organoids (ENR+CD Paneth differentiation); test: carbachol-stimulated secreted lysozyme activity relative to plate median (log10 fold change); higher = more Paneth cell lysozyme secretion; details: 6 d, carbachol 10 µM
# [3] = system: murine small intestinal organoids (ENR+CD Paneth differentiation); test: basal (non-stimulated) secreted lysozyme activity relative to plate median (log10 fold change); higher = more Paneth cell lysozyme secretion; details: 6 d
# 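Wherever basal (non-stimulated) secreted lysozyme activity relative to plate median is given: ISC-enriched organoid precursors grown as 2.5D pseudo-monolayer on Matrigel, compound given on day 0 and day 3, plate values LOESS-normalized before median fold change, three murine donors.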
# 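Wherever cellular ATP (CellTiter-Glo 3D) relative to plate median is given: 2.5D pseudo-monolayer culture of ISC-enriched organoids partly embedded atop Matrigel, compound added on day 0 and again on day 3, per-plate LOESS correction before median fold change.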
SMILES,cellular ATP (log10) ([1]; 0.08 µM),cellular ATP (log10) ([1]; 0.4 µM),cellular ATP (log10) ([1]; 2 µM),cellular ATP (log10) ([1]; 10 µM),carbachol-stimulated secreted lysozyme activity (log10) ([2]; 0.08 µM),carbachol-stimulated secreted lysozyme activity (log10) ([2]; 0.4 µM),carbachol-stimulated secreted lysozyme activity (log10) ([2]; 2 µM),carbachol-stimulated secreted lysozyme activity (log10) ([2]; 10 µM),basal (log10) ([3]; 0.08 µM),basal (log10) ([3]; 0.4 µM),basal (log10) ([3]; 2 µM),basal (log10) ([3]; 10 µM)
COc1cc(CCc2cc(NC(=O)c3ccc(N4CC(C)NC(C)C4)cc3)n[nH]2)cc(OC)c1 (stereo unspecified),0.16 ± 0.11,0.101 ± 0.14,-0.00995 ± 0.29,-0.0615 ± 0.22,0.14 ± 0.082,0.0164 ± 0.18,0.0476 ± 0.15,-0.0898 ± 0.029,0.0999 ± 0.057,0.0594 ± 0.11,0.068 ± 0.072,-0.0381 ± 0.051
CN(C)Cc1ccc(-c2nc3cccc4c3n2CCNC4=O)cc1,-0.0117 ± 0.41,-0.0693 ± 0.092,0.00488 ± 0.21,-0.0208 ± 0.34,0.149 ± 0.046,-0.023 ± 0.12,-0.111 ± 0.22,-0.187 ± 0.19,0.152 ± 0.084,0.0359 ± 0.06,0.0319 ± 0.061,-0.197 ± 0.086
COc1cc2c(cc1OC)[C@@H]1Cc3ccc(OC)c(OC)c3CN1CC2 [Rotundine],0.277 ± 0.24,0.164 ± 0.39,0.169 ± 0.12,0.222 ± 0.21,0.0917 ± 0.16,0.0419 ± 0.059,0.258 ± 0.2,0.11 ± 0.19,0.14 ± 0.076,0.147 ± 0.18,0.0715 ± 0.046,0.109 ± 0.12
COc1cc2c(cc1OC)CN(CCc1ccc(NC(=O)c3cc(OC)c(OC)cc3NC(=O)c3cnc4ccccc4c3)cc1)CC2 [Tariquidar],-0.101 ± 0.4,-0.145 ± 0.41,0.346 ± 0.41,0.139 ± 0.39,0.1 ± 0.11,0.116 ± 0.09,0.0125 ± 0.048,-0.0565 ± 0.0063,0.0434 ± 0.12,0.028 ± 0.07,0.0276 ± 0.053,0.139 ± 0.2
O=C(O)C(Cc1ccccc1[N+](=O)[O-])=NNc1nc(-c2ccc(Cl)c(Cl)c2)cs1,-0.16 ± 0.29,-0.131 ± 0.63,0.127 ± 0.13,-0.109 ± 0.23,-0.0575 ± 0.023,0.103 ± 0.0066,-0.0707 ± 0.14,0.0902 ± 0.29,0.11 ± 0.22,0.0362 ± 0.078,0.0686 ± 0.2,-0.0344 ± 0.075
O=C(NCCN1CCOCC1)c1ccc(Cl)cc1,0.146 ± 0.4,0.106 ± 0.53,0.116 ± 0.35,0.0419 ± 0.2,0.0471 ± 0.18,-0.0121 ± 0.064,-0.0597 ± 0.084,8.09e-05 ± 0.042,0.0752 ± 0.18,0.121 ± 0.22,0.00127 ± 0.12,-0.0279 ± 0.067
CC1(COc2ccc3c(c2)ncn3-c2ccc3cccc(N4CCC(N)CC4)c3n2)COC1,-0.0689 ± 0.22,-0.0245 ± 0.28,0.0532 ± 0.37,-0.338 ± 0.25,0.0352 ± 0.083,0.0284 ± 0.035,0.159 ± 0.069,-0.292 ± 0.25,0.121 ± 0.017,0.0506 ± 0.049,0.122 ± 0.024,-0.224 ± 0.15
O=C(C=Cc1ccccc1)NC(NC(=S)Nc1ccc(Cl)cc1)C(Cl)(Cl)Cl (stereo unspecified),-0.173 ± 0.77,0.185 ± 0.097,0.0186 ± 0.54,-0.535 ± 0.41,-0.263 ± 0.4,0.0386 ± 0.088,-0.063 ± 0.057,-0.283 ± 0.37,-0.0186 ± 0.26,0.0244 ± 0.065,0.0217 ± 0.066,-0.0292 ± 0.35
CCNC(=O)c1noc(-c2cc(C(C)C)c(O)cc2O)c1-c1ccc(CN2CCOCC2)cc1,-1.18 ± 0.6,-1.34 ± 0.57,-1.14 ± 0.88,-1.27 ± 0.42,-0.275 ± 0.048,-0.239 ± 0.036,-0.282 ± 0.022,-0.265 ± 0.014,-0.144 ± 0.074,-0.154 ± 0.045,-0.138 ± 0.055,-0.153 ± 0.063
CC1(C)CCC(CN2CCN(c3ccc(C(=O)NS(=O)(=O)c4ccc(NCC5CCOCC5)c([N+](=O)[O-])c4)c(Oc4cnc5[nH]ccc5c4)c3)CC2)=C(c2ccc(Cl)cc2)C1,0.0189 ± 0.2,0.0375 ± 0.17,-0.278 ± 0.55,-0.519 ± 0.21,-0.0209 ± 0.11,0.116 ± 0.083,-0.0433 ± 0.12,-0.391 ± 0.072,-0.0015 ± 0.1,-0.0289 ± 0.092,-0.0156 ± 0.075,-0.169 ± 0.15
CC1C(=O)OC2C(O)C34C5CC(C(C)(C)C)C36C(OC(=O)C6O)OC4(C(=O)O5)C12O (stereo unspecified) [Ginkgolide B],-0.0762 ± 0.21,0.0339 ± 0.14,-0.154 ± 0.46,0.177 ± 0.27,-0.0602 ± 0.053,0.0305 ± 0.0022,0.0013 ± 0.082,-0.0745 ± 0.081,0.0406 ± 0.12,0.109 ± 0.16,0.0606 ± 0.024,-0.0374 ± 0.08
CC(C)(C)NC(=O)[C@H]1CC[C@H]2[C@@H]3CC[C@H]4NC(=O)C=C[C@]4(C)[C@H]3CC[C@]12C [Finasteride],0.151 ± 0.15,-0.0384 ± 0.28,0.073 ± 0.25,-0.0405 ± 0.29,0.188 ± 0.073,0.167 ± 0.12,0.127 ± 0.05,-0.0231 ± 0.1,0.205 ± 0.021,0.213 ± 0.15,0.142 ± 0.043,0.0675 ± 0.11
Cc1ccc2c(=O)c3cccc(CC(=O)O)c3oc2c1C [DMXAA (Vadimezan)],-0.568 ± 0.62,-0.629 ± 0.61,-0.477 ± 0.69,-0.23 ± 0.24,-0.106 ± 0.16,0.00293 ± 0.27,-0.109 ± 0.047,-0.147 ± 0.03,-0.00747 ± 0.13,-0.0364 ± 0.071,-0.0384 ± 0.056,-0.0311 ± 0.091
O=C(NNc1ccccc1)c1ccncc1,-0.146 ± 0.052,-0.0946 ± 0.041,-0.433 ± 0.28,-0.853 ± 0.059,0.0228 ± 0.04,-0.0439 ± 0.061,-0.173 ± 0.2,-0.445 ± 0.097,0.0827 ± 0.18,0.00447 ± 0.17,-0.107 ± 0.073,-0.284 ± 0.1
COc1ccc(C(=O)Nc2sc3c(c2C(N)=O)CCCC3)cc1OC,0.176 ± 0.062,0.263 ± 0.13,0.0358 ± 0.14,-0.139 ± 0.51,0.115 ± 0.19,0.106 ± 0.11,0.0747 ± 0.047,0.043 ± 0.079,0.0709 ± 0.19,0.114 ± 0.02,0.0513 ± 0.072,0.00735 ± 0.023
COc1ccc(-c2nc3cc(C4=NNC(=O)CC4C)ccc3[nH]2)cc1 (stereo unspecified) [Pimobendan],-0.022 ± 0.26,0.193 ± 0.15,0.206 ± 0.24,0.139 ± 0.13,0.194 ± 0.18,0.0705 ± 0.015,0.227 ± 0.27,-0.122 ± 0.092,0.0377 ± 0.059,0.0627 ± 0.067,0.129 ± 0.14,-0.0663 ± 0.047
CC(C)(C#N)c1cc(Cn2cncn2)cc(C(C)(C)C#N)c1 [Anastrozole],-0.117 ± 0.55,0.0238 ± 0.34,-0.0583 ± 0.17,-0.499 ± 0.55,0.0736 ± 0.044,0.15 ± 0.071,-0.0104 ± 0.12,-0.0983 ± 0.11,0.0351 ± 0.053,0.106 ± 0.064,-0.003 ± 0.073,-0.0666 ± 0.065
Cc1[nH]c(/C=C2\C(=O)Nc3ccc(S(=O)(=O)Cc4c(Cl)cccc4Cl)cc32)c(C)c1C(=O)N1CCC[C@@H]1CN1CCCC1,0.471 ± 0.21,0.62 ± 0.11,0.561 ± 0.12,0.0238 ± 0.34,0.151 ± 0.012,0.361 ± 0.27,0.132 ± 0.16,-0.185 ± 0.063,0.182 ± 0.042,0.272 ± 0.13,0.183 ± 0.1,-0.107 ± 0.038
